From article PMC4336329 (PLoS ONE, 2015)
Hit rate of the full screen: of about 310,000 compounds, about 2,200 (0.71%) showed an effect of 50% or more. The effect is printed as a negative number. The list shows a part of the results.

These compounds were tested against human ether-à-go-go-related gene (hERG) potassium channel (human, UniProt Q12809) (assay: primary screen, population patch clamp on CHO cells stably expressing hERG).
Sequence of human ether-à-go-go-related gene (hERG) potassium channel (Q12809 whole entry, looked up): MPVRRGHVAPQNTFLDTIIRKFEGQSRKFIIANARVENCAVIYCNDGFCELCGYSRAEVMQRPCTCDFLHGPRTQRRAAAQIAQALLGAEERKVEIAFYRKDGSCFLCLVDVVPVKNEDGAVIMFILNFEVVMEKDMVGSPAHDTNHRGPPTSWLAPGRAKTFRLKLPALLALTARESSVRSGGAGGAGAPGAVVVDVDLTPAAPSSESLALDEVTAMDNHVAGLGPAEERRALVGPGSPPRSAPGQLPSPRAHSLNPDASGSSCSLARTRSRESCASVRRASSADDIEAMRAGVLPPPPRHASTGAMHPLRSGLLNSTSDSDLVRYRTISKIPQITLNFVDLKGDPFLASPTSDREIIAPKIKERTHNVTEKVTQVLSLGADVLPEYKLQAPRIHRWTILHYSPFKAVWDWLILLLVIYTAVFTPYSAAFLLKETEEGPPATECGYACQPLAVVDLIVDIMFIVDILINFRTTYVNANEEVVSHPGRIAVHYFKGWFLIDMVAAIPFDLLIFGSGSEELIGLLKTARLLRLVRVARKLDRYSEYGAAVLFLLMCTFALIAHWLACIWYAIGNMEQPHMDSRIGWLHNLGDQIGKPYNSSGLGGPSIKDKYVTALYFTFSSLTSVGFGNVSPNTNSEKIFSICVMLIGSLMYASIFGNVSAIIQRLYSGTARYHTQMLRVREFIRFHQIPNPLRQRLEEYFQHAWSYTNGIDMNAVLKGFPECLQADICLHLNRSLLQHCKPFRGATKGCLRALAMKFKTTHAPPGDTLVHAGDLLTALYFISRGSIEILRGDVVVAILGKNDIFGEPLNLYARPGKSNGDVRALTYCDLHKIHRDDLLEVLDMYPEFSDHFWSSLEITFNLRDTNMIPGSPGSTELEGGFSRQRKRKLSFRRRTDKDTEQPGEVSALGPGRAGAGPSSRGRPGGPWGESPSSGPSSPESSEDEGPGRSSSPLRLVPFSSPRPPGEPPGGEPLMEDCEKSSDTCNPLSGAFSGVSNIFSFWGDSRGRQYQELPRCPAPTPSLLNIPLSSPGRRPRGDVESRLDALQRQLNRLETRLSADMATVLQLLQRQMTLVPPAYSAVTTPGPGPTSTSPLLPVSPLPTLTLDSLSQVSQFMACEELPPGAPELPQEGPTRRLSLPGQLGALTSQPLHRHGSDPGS

| SMILES | hERG current change (%, negative = inhibition) at 1uM [%] |
| --- | --- |
| CC(C)NC(=O)c1c(O)c2ccccc2[nH]c1=O | 3.05 |
| Cc1c(N2C(=O)/C(=C\c3cccc4ccccc34)SC2=S)c(=O)n(-c2ccccc2)n1C | 2.18 |
| CCN(CC)c1nc(Nc2ccccc2)nc(Oc2ccc(=O)n(C)n2)n1 | 6.81 |
| COC(=O)c1ccccc1S(=O)(=O)NNC(=O)Nc1ccccc1 | 17.2 |
| Cc1cc(NC(=O)c2ccccc2Cl)no1 | 16.5 |
| CCCn1c(N)c(C(=O)CSc2ncc(C(F)(F)F)cc2Cl)c(=O)[nH]c1=O | 15.7 |
| COc1ccc(CCNC(=O)CCN2C(=O)[C@@H]3Cc4ccccc4CN3C2=O)cc1 | 6.69 |
| COc1cc(-c2nnn(CC(=O)NC3CCS(=O)(=O)C3)n2)ccc1OCc1ccccc1 (stereo not drawn) | 12.4 |
| COc1ccc(COCC(O)CN2CC(C)OC(C)C2)cc1OC.Cl (stereo not drawn) | 11.8 |
| O=C(c1ccco1)N1CCN(C(=O)C2CC(c3ccccc3F)=NO2)CC1 (stereo not drawn) | 3.75 |
| COC(=O)c1c(NC(C)=O)sc(C(=O)Nc2ccccc2C)c1C | 15.2 |
| Cc1ccc(N=C(NO)c2cnccc2C(F)(F)F)c(C)c1 | 9.7 |
| CCC(C)(C)NC(=O)C(c1ccncc1)N(Cc1ccc(C)cc1)C(=O)c1csnn1 (stereo not drawn) | 1.92 |
| Cc1c(C(=O)Nc2ccc3c(c2)OCO3)sc2nc(-c3ccccc3)cn12 | 17.5 |
| Cn1cnnc1-c1cccc(NS(=O)(=O)c2ccc(N3CCCC3=O)cc2)c1 | 10.6 |
| Cc1ccc(C)c(N(C(=O)c2csnn2)C(C(=O)NC2CCCCC2)c2ccccn2)c1 (stereo not drawn) | 8.25 |
| CC(=O)Nc1ccc(-c2nc3c(C)cccc3[nH]2)cc1 | 3.09 |
| CC1CCN(C2CC(=O)N(c3ccccc3)C2=O)CC1 (stereo not drawn) | 19.2 |
| N/C(=N\OC(=O)c1cc(Cl)ccc1Cl)c1ccccn1 | 8.11 |
| O=C(CCC1CCCC1)NNC(=O)c1cccc(Cl)c1 | 5.23 |
| CC(=O)c1cc2c(cc1NC(=O)CSc1nc3ccccc3[nH]1)OCO2 | -2.99 |
| COc1ccc(N(CC(=O)NCc2ccc(C)cc2)S(=O)(=O)c2c(C)[nH]c(=O)[nH]c2=O)cc1 | 16 |
| O=C1CNC(=O)/C1=C\c1ccc(O)cc1 | 15.3 |

| SMILES | hERG current change (%, negative = inhibition) at 1uM [%] |
| --- | --- |
| Cc1csc(NC(=O)CSc2nc(=O)cc(N)n2-c2ccc(F)cc2)n1 | 13.8 |
| COC(=O)C1CCN(c2cc(=O)n(-c3ccc(OC)cc3)c(=O)[nH]2)CC1 | 9.72 |
| CC1=CC(C)=Nc2ccc(C)cc2N1 | -4.11 |
| O=C1CCC(N2C(=O)c3ccccc3C2=O)C(=O)N1 (stereo not drawn) | 17.6 |
| COc1ccc2[nH]c(C(=O)O)c(NC(=O)c3cc(OC)c(OC)c(OC)c3)c2c1 | 5.04 |
| CCCCCC1NC(=O)NC1CCCCCC(=O)O (stereo not drawn) | 12.4 |
| Cc1ccc(N/C=C(/C#N)c2ccsc2)cc1 | 7.37 |
| O=c1c2ccccc2c(=O)n(Cc2ccccc2)n1Cc1ccccc1 | 17.4 |
| Cc1[nH]nc2c1C(C(C)C)C(C#N)=C(N)O2 (stereo not drawn) | 9.58 |
| Cc1noc(C(=O)Nc2sc3c(c2C#N)CCC3)c1Cl | 17.1 |
| Cc1nc(NCC2CCCO2)nc2c1C(=O)CC(C)(C)C2 (stereo not drawn) | 19.1 |
| CCSc1nc(-c2ccc(OC)cc2)n(-c2nc3ccccc3s2)n1 | -4.99 |
| O=C(Nc1ccccc1N1CCOCC1)c1ccccc1NS(=O)(=O)c1ccc(F)cc1 | 10.3 |
| CCN(CC)S(=O)(=O)c1ccc(N2CCOCC2)c(NC(=O)c2ccc(F)cc2)c1 | -9.49 |
| O=C(c1cc(-c2ccccc2O)on1)N1CCCC1 | 8.08 |
| COc1ccc(/C=N/Nc2cc(C)nc(N3CCOCC3)n2)c(OC)c1 | 16.8 |
| COc1ccc(-c2nc(CS(=O)CC(=O)N3CCc4ccccc4C3)c(C)o2)cc1 (stereo not drawn) | -1.79 |
| CC(C)CCNC(=O)COc1cccc2c1OC(C)(C)C2 | 11.5 |
| Cc1ccc(C)c(N(CC(=O)NN=C2CCCCCCC2)S(C)(=O)=O)c1 | -0.335 |
| COC(=O)c1ccc(NC(=O)CSCc2ccccc2C)cc1 | 1.13 |
| COc1ccccc1NC(=O)C(CCS(C)(=O)=O)N1C(=O)c2ccccc2C1=O (stereo not drawn) | 14.8 |
| Fc1ccccc1NC(=S)NC1CCCC1 | 18.1 |
| CC(C)=CC(=O)Nc1nnc(-c2ccccc2)s1 | 0.187 |

| SMILES | hERG current change (%, negative = inhibition) at 1uM [%] |
| --- | --- |
| CC12CCC(=O)N1C(C(=O)Nc1cccc3ccccc13)CS2 (stereo not drawn) | 11.8 |
| C=CCn1c(SCC(=O)Nc2ccc3c(c2)OCO3)nnc1-c1ccccc1O | 2.93 |
| CCOC(=O)N1CCN(C(=O)CSc2nnc(COc3ccccc3)o2)CC1 | -1.13 |
| O=C(c1ccccc1)c1ccc(C(=O)N2CCN(c3ccccc3Cl)CC2)cc1 | 6.65 |
| COc1cccc(CN(Cc2cccnc2)S(=O)(=O)c2ccc(-n3cnnn3)c(C)c2)c1OC | -5.85 |
| CCCC(CCC(=O)Nc1ccc(C(=O)OC)cc1)C(=O)O (stereo not drawn) | 1.94 |
| CCN(C(=O)COC(=O)CNS(=O)(=O)c1ccccc1)c1ccccc1 | 8.78 |
| CCN(CC(=O)Nc1cc(Cl)ccc1C)C(=O)Cc1sc(C)nc1-c1ccc(F)cc1 | -1.52 |
| COc1ccc(OC)c(C(=O)Cn2nnc3ccccc3c2=O)c1 | 10.6 |
| Cc1cccc(-n2c(-c3ccco3)n[nH]c2=S)c1 | 14.1 |
| Oc1ccc(NCc2ccc(OCc3ccccc3)cc2)cc1 | 11.4 |
| CCC(C)C(=O)Nc1nnc(SCC(=O)NC2CCCC2)s1 (stereo not drawn) | 18.5 |
| CC1(C)OC2C(CO)OC(n3cnc4c(=S)nc[nH]c43)C2O1 (stereo not drawn) | 15.1 |
| COc1ccc(-n2c(SCC(=O)NC3CCCCC3)nc3ccsc3c2=O)cc1 | -4.99 |
| COc1ccc2oc(C(=O)OCC(=O)Nc3cc(S(=O)(=O)N4CCOCC4)ccc3OC)c(C)c2c1 | 7.54 |
| CCCCC(=O)NC(c1ccco1)c1c(O)ccc2ccccc12 (stereo not drawn) | 6.53 |
| CC1=CC(C)C(CN(CCC[N+](C)(C)C)C(=O)Nc2ccccc2)C(C)C1.[I-] (stereo not drawn) | 17.8 |
| CCOC(=O)c1nc2sc(C)c(C)c2c(=O)[nH]1 | 12.3 |
| O=C(CCc1nc2ccccc2c(=O)[nH]1)N1CCN(c2ccc(F)cc2)CC1 | -28.8 |
| CC1(c2ccc(Cl)c(Cl)c2)NC(=S)N2C1NC(=S)N2c1ccccc1 (stereo not drawn) | 12.3 |
| CN(C)c1ccc(C(=O)NC2CCCc3ccccc32)cc1 (stereo not drawn) | 14.1 |
| Cc1sc(NC(=O)c2ccco2)c(CN2CCN(c3ccccn3)CC2)c1C | 6.47 |
| CC(C)CN1C(=O)NC(NC(=O)c2cccs2)(C(F)(F)F)C1=O (stereo not drawn) | -8.36 |

| SMILES | hERG current change (%, negative = inhibition) at 1uM [%] |
| --- | --- |
| CNc1sc(C(=O)c2ccccc2F)c(N)c1-c1nc2ccccc2s1 | 10.9 |
| CCOc1ccccc1NC(=O)Nc1ccc2c(c1)OCO2 | 10.7 |
| CCOC(=O)c1sc(=S)n(C)c1NC(=O)c1ccccc1C | 14.1 |
| COc1ccc(CCc2nnc(CCC(=O)NCc3cnc4ccccn34)o2)cc1 | 11.4 |
| CCN(CC1CCCO1)C(=O)CCc1nnc(CCc2ccccc2OC)o1 (stereo not drawn) | -4.29 |
| CC1Cc2nc(SCC(=O)N3CCOCC3)n(-c3ccccc3)c(=O)c2S1 (stereo not drawn) | 13.4 |
| CC(CCc1ccccc1)NC(=O)c1ccc2nc(N3CCOCC3)sc2c1 (stereo not drawn) | 5.47 |
| Cc1ccc(NC(=O)CSc2nn(-c3ccccc3)c(=S)s2)cc1S(=O)(=O)N(C)C | 5.35 |
| CCc1cccc2c1NC(=O)[C@]21[C@@H]2C(=O)N(Cc3ccccc3)C(=O)[C@@H]2[C@@H]2CCCN21 | 10.1 |
| CCOC(=O)CC(=O)Nc1ccsc1C(N)=O | 11.9 |
| COc1ccccc1C(CNC(=O)COc1ccccc1C)N1CCCC1 (stereo not drawn) | 7.2 |
| Cc1c(NC(N)=O)c(=O)n(-c2ccccc2)n1C | 1.18 |
| COc1ccc(N2CCN(C(=O)CN(C)S(=O)(=O)c3cccs3)CC2)cc1 | 12.7 |
| O=C(O)CN1C(=O)/C(=C2\C(=O)N(Cc3ccccc3Cl)c3ccccc32)SC1=S | 5.2 |
| CCCCOC(=O)c1ccc(O)cc1 | 11 |
| O=C(Nc1c(Cl)cc(Cl)cc1C(=O)NCCN1CCOCC1)c1ccc(Cl)cc1Cl | -2.37 |
| COc1ccccc1NC(C#N)c1ccccc1OCc1ccccc1 (stereo not drawn) | 14.2 |
| COc1cc(C(=O)Nc2ccc(Br)cc2C(=O)c2ccccc2)cc(OC)c1OC | 12.3 |
| Cc1cc(NS(=O)(=O)c2ccc(NC(=O)NC(C)(C(F)(F)F)C(F)(F)F)cc2)no1 | -1.16 |
| COC(=O)c1cc(COC(=O)c2cccnc2SC)oc1C | 15.1 |
| O=C(Nc1cccc(-c2nc3ncccc3o2)c1)c1cc2ccccc2o1 | 5.21 |
